According to PubChem BioAssay AID1468 (National Center for Advancing Translational Sciences (NCATS), 2008):
Several values for one entry are separate records, joined by “and”; a condition that tells them apart may be missing. Equal values may be shown once. Among all 280,000 compounds or so, about 1,100 (0.39%) were called active. Inconclusive means that the source gave no clear call. Such entries were picked first, then a sample of the others. Calls follow the shape of the dose curve; as a rule, active = well fitted inhibition curve with a large enough effect; inconclusive = small, poorly fitted or top-dose-only effect, or effect the other way; inactive = flat fitted curve, though single readings scatter. Where the call is inconclusive, the potency comes from a doubtful curve fit.
Also: nearly all actives have a fitted effect of over 55% in size.
Potency is read from the fitted curve at half-maximal effect; tags tell the direction and shape of the fitted curve.

The compounds below were run against Microtubule-associated protein tau (Homo sapiens) (UniProt P10636) (assay: qHTS for Inhibitors of Tau Fibril Formation, Fluorescence Polarization). Settings: K18 P301L tau heparin fibrillization, Alexa594 FP, 6 h; series mostly up to 57.7 µM.
UniProt P10636, sequence (P10636 whole entry, looked up): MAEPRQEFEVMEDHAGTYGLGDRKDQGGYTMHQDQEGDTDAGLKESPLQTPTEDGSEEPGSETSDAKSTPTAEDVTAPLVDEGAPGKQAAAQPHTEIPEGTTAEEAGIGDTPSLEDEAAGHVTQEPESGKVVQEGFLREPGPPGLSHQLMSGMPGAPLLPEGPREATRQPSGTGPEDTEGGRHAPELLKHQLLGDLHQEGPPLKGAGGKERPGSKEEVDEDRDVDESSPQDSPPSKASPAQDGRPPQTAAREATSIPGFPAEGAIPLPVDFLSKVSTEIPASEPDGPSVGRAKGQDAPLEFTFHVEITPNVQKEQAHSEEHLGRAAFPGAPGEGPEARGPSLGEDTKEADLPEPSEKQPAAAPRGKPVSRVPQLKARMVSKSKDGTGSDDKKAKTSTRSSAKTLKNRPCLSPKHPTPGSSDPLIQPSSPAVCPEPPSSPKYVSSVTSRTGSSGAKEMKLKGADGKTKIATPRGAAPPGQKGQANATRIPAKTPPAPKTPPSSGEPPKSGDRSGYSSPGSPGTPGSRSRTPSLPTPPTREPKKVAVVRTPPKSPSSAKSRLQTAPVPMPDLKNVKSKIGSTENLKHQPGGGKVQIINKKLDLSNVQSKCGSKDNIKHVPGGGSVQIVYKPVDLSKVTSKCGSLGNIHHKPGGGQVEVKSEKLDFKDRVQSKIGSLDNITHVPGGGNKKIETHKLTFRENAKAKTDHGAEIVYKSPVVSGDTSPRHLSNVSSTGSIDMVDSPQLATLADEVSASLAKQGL
Outline: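 Recombinant K18 P301L […], labeled with Alexa 594 at 0.24 uM over 15 uM unlabeled; heparin inducer 20 uM final; 37 C, 6 hr; FP endpoint.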
In the case of `N#CC12COC3(CCCCC3C1(C#N)C#N)OC2=N` (stereo not given), the Potency was inconclusive: 28.2 µM [inhibitor, partial curve]. For `Cc1ccc(O)c(-c2cc(C(=O)Nc3ccc(S(=O)(=O)N4CC(C)OC(C)C4)cc3)[nH]n2)c1` (stereo not given), the Potency was inconclusive: 1.26 µM [inhibitor, full curve]. With `Cc1ccc(CSc2nnc3c(n2)OC2(Nc4ccccc4-3)C(=O)Nc3ccc(F)cc32)cc1` (stereo not given) the Potency was inconclusive: 44.7 µM [inhibitor, single point]. For `Cc1ccc(NC(=O)CN2C(=O)C(C)(C)c3cc(S(=O)(=O)N4CCCCC4)ccc32)c(Br)c1`, the Potency was “inactive”. With `CCc1ccc(CN(C)Cc2nc(Cc3ccccc3)no2)nc1` the Potency was inconclusive: 0.158 µM [inhibitor, full curve, poor fit]. With `CC1CCN(S(=O)(=O)c2ccc3c(c2)N(CC(=O)Nc2ccc(F)c(Cl)c2)C(=O)CO3)CC1` the Potency was inconclusive: 10 µM [inhibitor, partial curve]. In the case of `CCOC(=O)Cc1csc(N/N=C/c2ccc(Cl)cc2)n1`, the Potency was inconclusive: 3.16 µM [activator, partial curve, poor fit]. With `COCCn1c(SCC(=O)Nc2cc(C(C)(C)C)nn2-c2ccccc2)nnc1-c1ccncc1` the Potency was inconclusive: 0.0251 µM [inhibitor, full curve, poor fit]. In the case of `CN(C)c1ccc(-c2nnn(CC(=O)N3c4ccccc4CCc4ccccc43)n2)cc1`, the Potency was inconclusive: 0.0501 µM [activator, full curve, poor fit]. `COc1ccc(Br)cc1CNC(=O)CCSCc1ccc(Cl)cc1` was tested, and the Potency was inconclusive: 17.8 µM [inhibitor, partial curve]. `COc1ccc2cc(/C=N/NC(=O)c3ccc(CN(c4ccc(C)c(C)c4)S(C)(=O)=O)cc3)c(Cl)nc2c1` was tested, and the Potency was inconclusive: 31.6 µM [inhibitor, partial curve, poor fit]. `Cc1nn(CC(=O)N2CCN(c3ccccc3)CC2)c(=O)c2cc3sccc3n12` was tested, and the Potency was “inactive”. In the case of `Fc1ccc(-c2cc(C(F)(F)F)nc(NCc3cccs3)n2)cc1`, the Potency was inconclusive: 35.5 µM [inhibitor, single point]. For `CCOC(=O)c1ccc(NC(=O)CN(c2ccc(C)cc2)S(=O)(=O)c2c(C)noc2C)cc1`, the Potency was inconclusive: 12.6 µM [inhibitor, partial curve]. `CCCCOC(=O)c1ccc(Nc2ncnc3[nH]ncc23)cc1` was tested, and the Potency was inconclusive: 25.1 µM [inhibitor, partial curve]. In the case of `COc1ccc2oc(=O)cc(CN3CCN(c4ccc(F)cc4)CC3)c2c1`, the Potency was “inactive”. In the case of `Cc1cccc(C(=O)N2CCN=C2SCc2ccc([N+](=O)[O-])cc2)c1`, the Potency was inconclusive: 8.91 µM [inhibitor, single point]. For `Cc1cccc(C(=O)Nc2ccc(-c3nc4ccccc4s3)cc2Cl)c1`, the Potency was inconclusive: 6.31 µM [inhibitor, partial curve]. For `COCc1cc(CN2CCCC2)c(O)c2ncccc12`, the Potency was “inactive”. For `COc1ccc(-c2cc(C(=O)OCC(=O)c3ccc(C)cc3)c3cccc(Cl)c3n2)cc1`, the Potency was inconclusive: 14.1 µM [inhibitor, partial curve]. For `CCn1c(C)cc2c(c1=O)C(c1ccncc1)C(C#N)=C(N)O2` (stereo not given), the Potency was “inactive”. In the case of `C=CCn1c(=NC(=O)c2ccc(S(=O)(=O)N3CCc4ccccc4C3)cc2)sc2cc(S(N)(=O)=O)ccc21`, the Potency was inconclusive: 0.112 µM [inhibitor, full curve, poor fit]. With `COc1cc(/C=N/NC(=O)c2cccnc2)ccc1OS(=O)(=O)c1ccc(F)cc1` the Potency was inconclusive: 7.08 µM [inhibitor, full curve, poor fit]. With `O=C(Nc1ccncc1)c1ccc2c(c1)C(=O)N(C1CCCCC1)C2=O` the Potency was inconclusive: 39.8 µM [inhibitor, single point]. In the case of `COc1c(OC(C)=O)ccc(/C=C/c2ccc3ccccc3n2)c1[N+](=O)[O-]`, the Potency was inconclusive: 31.6 µM [inhibitor, single point]. For `CC(C)(C)C(=O)/C=c1\s/c(=C\c2ccc(-c3ccc([N+](=O)[O-])cc3)o2)c(=O)n1CC(=O)NC(N)=O`, the Potency was “inactive”. `CN(C)S(=O)(=O)c1cccc(NC(=O)COC(=O)/C=C/c2cccs2)c1` was tested, and the Potency was inconclusive: 25.1 µM [inhibitor, partial curve]. In the case of `COc1cccc(-c2noc(-c3ccc(Br)o3)n2)c1`, the Potency was inconclusive: 12.6 µM [inhibitor, partial curve]. `Cc1ccc(NC(=O)Cc2ccc(Cl)c(Cl)c2)cc1S(=O)(=O)N(C)C` was tested, and the Potency was inconclusive: 20 µM [inhibitor, single point]. With `CC(C)(C)C1=Nn2c(nnc2-c2n[nH]c3c2CCC3)SC1` the Potency was “inactive”. In the case of `Cc1ccc2oc(C(=O)Nc3c(C(=O)Nc4ccccc4)oc4ccccc34)cc(=O)c2c1`, the Potency was “inactive”. `O=S(=O)(c1ccccc1)c1nnn2c1nc(NCc1cccs1)c1sccc12` was tested, and the Potency was inconclusive: 31.6 µM [inhibitor, partial curve, poor fit]. `C=CCSC1=C(C#N)C(c2ccccc2Cl)CC(=O)N1` (stereo not given) was tested, and the Potency was “inactive”. For `CCOC(=O)c1[nH]c2ccc(Br)cc2c1NC(=O)CCN1CCC(C(=O)OCC)CC1`, the Potency was inconclusive: 0.251 µM [activator, full curve, poor fit]. `CCCCC/C=C\C/C=C\C/C=C\C/C=C\CCCC(=O)C(F)(F)F` was tested, and the Potency was inconclusive: 20 µM [activator, single point]. `COc1ccc(NC(=O)Cn2c(=O)n(-c3ccccc3)c(=O)c3c4c(sc32)CCCC4)cc1` was tested, and the Potency was “inactive”. For `O=C(CN(c1ccc2c(c1)OCCO2)S(=O)(=O)c1ccccc1)Nc1ccc2c(c1)OCO2`, the Potency was inconclusive: 17.8 µM [activator, single point]. With `S=c1[nH]nc(Nc2ccc(Cl)cc2)s1` the Potency was “inactive”. With `CC(=O)Nc1cccc(Nc2nc(-c3ccccc3F)nc3ccccc23)c1` the Potency was inconclusive: 10 µM [inhibitor, partial curve]. In the case of `CCN(CC)S(=O)(=O)c1ccc(N2CCCC2)c(NS(=O)(=O)c2ccc(OC)cc2)c1`, the Potency was “inactive”. `CN(c1ccccc1)S(=O)(=O)c1ccc(NC(=O)c2ccc(-c3ccccc3)cc2)cc1` was tested, and the Potency was inconclusive: 35.5 µM [inhibitor, single point]. For `CCCc1cc(N2CCN(c3cc(Cl)ccc3C)CC2)n2cnnc2n1`, the Potency was “inactive”. With `Cc1ccc(-n2nnc3c(sc4nc(C)c(C)cc43)c2=O)cc1Cl` the Potency was “inactive”. `CN(C)S(=O)(=O)Oc1ccc(C(=O)Nc2cccc(C(F)(F)F)c2)cc1` was tested, and the Potency was inconclusive: 31.6 µM [inhibitor, partial curve]. For `COc1ccc(/C=C/C(=O)OCC(=O)Nc2cccc(Oc3ccccc3)c2)c(OC)c1`, the Potency was inconclusive: 10 µM [inhibitor, partial curve]. `CCN(c1ccccc1)S(=O)(=O)c1nnc(NC(=O)COc2ccc(OC)cc2)s1` was tested, and the Potency was “inactive”. For `Cc1cccc2c(=O)c(Br)c(C)n(Cc3ccccc3)c12`, the Potency was inconclusive: 44.7 µM [inhibitor, single point]. `CCc1ccccc1NS(=O)(=O)c1ccc2[nH]cc(C(=O)NCC3CCCO3)c(=O)c2c1` (stereo not given) was tested, and the Potency was inconclusive: 39.8 µM [inhibitor, single point]. For `CC(Oc1ccc(Br)cc1)c1nc2c3ccccc3nc(=S)n2[nH]1` (stereo not given), the Potency was “inactive”. For `O=C(NC1CCCC1)c1c[nH]c2ccc(S(=O)(=O)Nc3cccc(C(F)(F)F)c3)cc2c1=O`, the Potency was active: 10 µM. In the case of `CC1(C)CC(=O)C2=C(C1)N(c1cccnc1)C(N)=C(C#N)C2c1cccs1` (stereo not given), the Potency was inconclusive: 25.1 µM [inhibitor, partial curve, poor fit]. In the case of `Clc1cccc(CNc2ncnc3c2nc2n3CCCC2)c1`, the Potency was “inactive”. With `Cc1ccccc1Cn1c(O)c(N=NC(=S)Nc2ccccc2F)c2ccccc21` the Potency was “inactive”. `O=C(Cn1c(=O)n(Cc2ccc3c(c2)OCO3)c(=O)c2ccccc21)Nc1cccc(Cl)c1` was tested, and the Potency was active: 28.2 µM. `COc1ccc(/C=C/NC(=O)Cc2ccc(OC)c(OC)c2)cc1` was tested, and the Potency was inconclusive: 0.447 µM [inhibitor, partial curve, poor fit]. For `COc1ccc(Cl)cc1NC(=O)CCc1nc(-c2ccccc2F)no1`, the Potency was inconclusive: 891 nM [inhibitor, full curve, poor fit] and inconclusive: 10 µM [inhibitor, partial curve]. In the case of `CCOC(=O)c1cccc(NC(=O)CSc2ncc3c(n2)-c2ccccc2N(C)S3(=O)=O)c1`, the Potency was inconclusive: 15.8 µM [inhibitor, partial curve]. `CCOc1ccc(CC(=O)Nc2ccc3nc(N4CCCCC4)cc(C)c3c2)cc1OCC` was tested, and the Potency was inconclusive: 8.91 µM [activator, partial curve]. With `COc1ccc(C2=CC3=C(Br)C(=O)C(C)(OC(=O)c4ccco4)C(=O)C3=CO2)cc1` (stereo not given) the Potency was inconclusive: 35.5 µM [inhibitor, single point]. `COC(=O)CN1C(=O)C2(C(C#N)=C(N)Oc3c2c(C)nn3-c2ccccc2)c2ccccc21` (stereo not given) was tested, and the Potency was inconclusive: 31.6 µM [inhibitor, partial curve, poor fit]. `Cc1nn(-c2ccccc2)c(/N=C/c2ccc(O)cc2)c1-c1ccccc1` was tested, and the Potency was inconclusive: 14.1 µM [inhibitor, partial curve]. `c1ccc(-c2nc(N3CCCCCC3)c3ccccc3n2)nc1` was tested, and the Potency was “inactive”. `Cc1ccccc1CNC(=O)C(C)n1nc(C)n2c(cc3occc32)c1=O` (stereo not given) was tested, and the Potency was “inactive”. With `Cc1ccc(-c2nc3c(c(SCC(=O)N4CCCCC4)n2)Cc2cc(C)ccc2O3)cc1` the Potency was “inactive”. In the case of `CCOc1ccc2nc(SCC(=O)Nc3cc4c(cc3C(C)=O)OCO4)[nH]c2c1`, the Potency was “inactive”.
